Measured values from the RNAGym collection of RNA variant scans (doi:10.1073/pnas.2313332121).
Variants at the floor of the assay are shown more often than the library holds them.

B1: TPR 5TU (parent)
chain: GGAUCUUCUCGAUCUAACAAAAAAGACAAAUCUGCCACAAAGCUUGAGAGCAUCUUCGGAUGCAGAGGCGGCAGCCUUCGGUGGCGCGAUAGCGCCAACGUUCUCAACUAUGACACGCAAAACGCGUGCUCCGUUGAAUGGAGUUUAUCAUG

Variants of: B1
Experiment: polymerase ribozyme fitness, log enrichment relative to wild type (log ratio); higher = more active; in vitro selection for triplet polymerase activity
Summary of the method: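 Fitness measures genotype enrichment against wild-type enrichment on a logarithmic scale, with inverse-variance-weighted averaging of replicates. The logarithm is base 2, and genotypes were kept only with ≥10 input reads and ≥1 read per output in Illumina sequencing. The sequenced libraries came from one triplicate in vitro selection round, including frozen incubation at −7 °C, of PCR-built, transcribed mutant libraries of each subunit of a heterodimeric triplet polymerase ribozyme.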

Polymerase ribozyme fitness (log ratio), -2.76:
G11A C85A

Polymerase ribozyme fitness (log ratio), -4.03:
C10U C123U G141C
G11A C114G G124U

Polymerase ribozyme fitness (log ratio), ≤ -4.2:
C10G G68A G94U C96A C125G
G11A G50A G65C U77A C87U A138U C149U U151G
G11A A29G U44A C72U G94U A98G A106U A121U A142C
G11A G42U C57G A60C U135C
G11A C76G U77C
C10G C35U G86U C99G
G11A C54U U61A C95A C149G
C10U A28U G46A A60G A66U G94C A106U U151A
G11A A40G G67C G74U G84A C125G G128U U148A
C10G G94A A115C U139A
G11A A21U G74A U77A U90G U101A C108G
C10U A17G A23C A24C A26G U31G A39U U44A C54G C57G G86U A97U A142C
C10U A21U C76G C85G C93A A98G
C10U A47C A52G U77G G94U C99U
G11A C54U C87G C93U C125A G133A A142C
C10U C75G C93G C103U
G11A A12C C93U A107U G143U
C10U A22U C79A G83C A106U
C10U G80C G84U C87A C105A U151G
C10G C85G A98U
G11A A22C A28U G42A A106U A122U G124A
G11A A26G U55A C87A G124C G143C U148C
G11A U55A C93G
C10U A47U G62A A73G U77G G117A
C10G U13A A37C U44A C57G G88A A91C U102G C132G U135A
G11A A21C A24C C43U C85A U111C
C10G A52U
C10U C87A U139G A150G
G11A A30C A47G U61A G86U
C10U C35A U45G G100U A107G U135C
C10U A19U A37C U45A U56A G92A
C10G G25U A52G C85U C149G
C10U A22U C32G C85A G86A A121U U127C
G11A C63U C76A C103G U146G U148G
C10G G11U U15C G84A G88U
C10G C54U U55A C79G C93U A98G C116G A122U
C10G G92U C116U
G11A C18G G48U C69G G84U G141U
C10U A28U A52G U56A A73C C93U U145C C149G
G11A G34A C93U A97G
C10G C36U U56A A91U G94C C99U G126U
C10U A41U G59U G86C
G11A A41U A60G U77C C87A
G11A A20C A29C G48A C116A A147U
G11A A41G U45A C51G A60C G86A G88A C125U
G11A U61A G83U C93A U144G
C10G C27A A39U C75A G92C A97U A121U
G11A A22C A37C C96G A106C G136A
G11A C14A A40G C79A C93A G124A
C10G C14G A37G C54U C103A
C10U A23G A41G G58C C79G C99U A142U
C10U G59A C87A A120U U145C
C10U A49G A52C G92U C103U A121G
C10G C32U G81A C87G G92A A110G A115C U135C
C10U C14A C27U C38U G48A A52C C85A U146C U151C
G11A U61A C85A A122C A150C
C10G G71C C87U U102G G112C C116A G124U
C10U U78C G80A C85A C105A
G11A G62C G68A G83C G126A A147G
G11C A12G U55A G83U A106U
G11A A20C C35U C96U U102A
C10U U55A G80A C87A G88C A137C G140A G143C U146G
C10U C54U G71U C85A C96G G133C U145G G152A
C10G U33C G83A U90G
G11A U44A U56A A64C A91U C105U C108G A110C U135G
G11C A12G A41U C76A G83A C103G C114A
G11A U15A A19U G46C C57A A73U G81C C95U C103U
G11A G46U G92A C118U
G11A C14A G42C G58C A91G A107C A113G
G11A C14U G94A
G11A A23U U53A C57G C72U G86U C108A
G11A C14G A40U C93G C116U U139A U145A
C10G C57G G92C A113C G133A
C10U A39G C54A A60U A66C U82A G84U A150C U151A
C10U C14U C38U C103G U144G
G11A A22C A41C C87G U148A
C10U A19U A21U C32G G42A G80C A137U
C10G C36G G65A C87A G112A C116G A138U U145C
C10G G25C A40G C75U G84U U148A
C10U A91U G117U C132U U145A
G11A A12C U90C A91C
C10G U31A G62A C75U A91C G92A C96G A122C C125A
C10G C18G A20U A23G G59A G65C U151G
C10U G133U
C10U A60U C63G A64C U90C C95G C103A A122G
C10U C57A C93U C99A U146G
G11A A52G A107U
G11A U15A G48A C79G U144G
G11A C54G A73G C79A U82G C87U A122U G141C
C10U A16C A17C G70A A89G G94C C132U
C10U C32U A60G
G11A G34U G70U C93G G94C
C10G C38A C85A C118U C149U
G11A A17C A49C C85U A91U G136U
C10U U45A C54A G71C G136U
C10U A12G A39G G70C G92C U135G U145G U148A
C10G C18U C85G G133U A138G
C10U U82A G86A C93A G133C A138C
C10U A16C A22C U44G G83A A138G
C10G G25U U55A G88A A106G U130A A150G
C10U U53A C54U U55A C75G C105U G143U U145C U148A
C10U G88C
C10G A60G A64C A73G C93A
C10G A73U C76A C85G
C10U A29G A66G C72U G88A G133U A137U A150G
G11A G84A C85U G88A C99A C131G U139C
C10U A40G G50U C79G C99U C108G G117A
G11A A49C
C10G U55A C69G C93U C103G C116A
C10U G50A U55G A91G G143C
C10G G42U C63U C95A C123G
C10U C85G C99U G140U
G11A C38U A40U C75U G86A C108G G124C C132G
C10U A39G U102C
C10U G58C A60C G92U C149U
C10G G11C A66U
G11A G50U C76U C118U U139A
G11A A24C A47C C63A U77G G84A G126C
C10G U56A A89U C99U G112C U145G
G11A A91U C149U U151C
C10U U31A A60G C105U A122C G141C U145G A150G
G11A C57G G86C G141C
C10G G68C A73G
C10U A22C C35G G59C A106C
C10U U33G C85U A106U A119C
G11A A19U A22U U55A C93G C95U C114A U135G U148A
C10G C51G G65C A98U
C10U C57G C72U C87U U90G A119C G126A
G11C A12G A20C A40G C93U U135C
C10U C35A A40U U44A C51U G59U G68C C87A G143U
C10G U61G A89C U134C
G11A G34C U56A C57U C99G A142C
G11A A30U C105G A150G
C10U C35G U55G G81A A98G U102A
C10U U90G C95U U130C C149A
C10G U44G U56G C57U A66C C87U A106G A142U
C10U A24C C35U G48A C85U G136C
G11A C51G C87G A89U C125A U135G
G11A A39U A40C G100C
C10U A37C A52C C57U C87A C105G G143U
G11A A28U A49U A91G C93U C105G
C10U A22G C38A G48U G71A C87G G141A
G11A C79A U104G
C10G C36U A52G G94C
C10G U33A C69A C96G
C10G C69G G83C

Polymerase ribozyme fitness (log ratio), -2.24:
G11A G86A

Polymerase ribozyme fitness (log ratio), -4.1:
C10U U55A G84U

Polymerase ribozyme fitness (log ratio), -2.69:
G11A A113U

Polymerase ribozyme fitness (log ratio), -3.95:
C10U U55A C72U

Polymerase ribozyme fitness (log ratio), -2.87:
C10U C87U

Polymerase ribozyme fitness (log ratio), -4.04:
C10U A28U G94A U127G

Polymerase ribozyme fitness (log ratio), -1.58:
G11A G58U C96U

Polymerase ribozyme fitness (log ratio), -2.89:
G11A C69U C87U G92C A150G

Polymerase ribozyme fitness (log ratio), -3.76:
G11A A110G

Polymerase ribozyme fitness (log ratio), -4.14:
G11A A91G C114U U144C

Polymerase ribozyme fitness (log ratio), -3.59:
C10U C105A

Polymerase ribozyme fitness (log ratio), -4.19:
G11A U13C C36U A49U A60U

Polymerase ribozyme fitness (log ratio), -2.67:
G11A C125U U139G

Polymerase ribozyme fitness (log ratio), -2.63:
G11A A49G A60U

Polymerase ribozyme fitness (log ratio), -3.91:
C10G A52G C54U G58C C79A C95U

Polymerase ribozyme fitness (log ratio), -2.96:
G11A C54G G94A

Polymerase ribozyme fitness (log ratio), -2.47:
G11A C54A

Polymerase ribozyme fitness (log ratio), -4.12:
C10U A40G
